The text below walks through data of PMC9911399, “Two distinct binding modes provide the RNA-binding protein RbFox with extraordinary sequence specificity”.

Positions count from the first letter of the chain named. The list shows a part of the results.

The labels stand for the following.
B1: UCAGCUU (DNA:RNA)
RNA: GGGAGACCGGAAUUCAGAUUGUCCUCAGCUUUUAAAUCCCGUCGUAGCCACCA
DNA 1: CAATCTGAATTCCGGTCTCCC
DNA 2: TGGTGGCTACGACGGGATT
B2: AGUAACC (DNA:RNA)
RNA: GGGAGACCGGAAUUCAGAUUGUCCAGUAACCUUAAAUCCCGUCGUAGCCACCA
DNA 1: CAATCTGAATTCCGGTCTCCC
DNA 2: TGGTGGCTACGACGGGATT
B3: CUGGUUU (DNA:RNA)
RNA: B1 RNA with U25C, C26U, A27G, C29U
DNA 1: CAATCTGAATTCCGGTCTCCC
DNA 2: TGGTGGCTACGACGGGATT
B4: AACCGGU (DNA:RNA)
RNA: B2 RNA with G26A, U27C, A28C, A29G, C30G, C31U
DNA 1: CAATCTGAATTCCGGTCTCCC
DNA 2: TGGTGGCTACGACGGGATT
B5: GCAUACC (DNA:RNA)
RNA: B2 RNA with A25G, G26C, U27A, A28U
DNA 1: CAATCTGAATTCCGGTCTCCC
DNA 2: TGGTGGCTACGACGGGATT
B6: UACAAAU (DNA:RNA)
RNA: B2 RNA with A25U, G26A, U27C, C30A, C31U
DNA 1: CAATCTGAATTCCGGTCTCCC
DNA 2: TGGTGGCTACGACGGGATT
B7: GUUAUAA (DNA:RNA)
RNA: B2 RNA with A25G, G26U, A29U, C30A, C31A
DNA 1: CAATCTGAATTCCGGTCTCCC
DNA 2: TGGTGGCTACGACGGGATT
B8: AGGAUAG (DNA:RNA)
RNA: B2 RNA with U27G, A29U, C30A, C31G
DNA 1: CAATCTGAATTCCGGTCTCCC
DNA 2: TGGTGGCTACGACGGGATT
B9: GCACACG (DNA:RNA)
RNA: B2 RNA with A25G, G26C, U27A, A28C, C31G
DNA 1: CAATCTGAATTCCGGTCTCCC
DNA 2: TGGTGGCTACGACGGGATT
B10: CAUCUCU (DNA:RNA)
RNA: B2 RNA with A25C, G26A, A28C, A29U, C31U
DNA 1: CAATCTGAATTCCGGTCTCCC
DNA 2: TGGTGGCTACGACGGGATT
B11: GGGUUAU (DNA:RNA)
RNA: B2 RNA with A25G, U27G, A28U, A29U, C30A, C31U
DNA 1: CAATCTGAATTCCGGTCTCCC
DNA 2: TGGTGGCTACGACGGGATT
B12: CAAUCCC (DNA:RNA)
RNA: B2 RNA with A25C, G26A, U27A, A28U, A29C
DNA 1: CAATCTGAATTCCGGTCTCCC
DNA 2: TGGTGGCTACGACGGGATT
B13: CAUCCUU (DNA:RNA)
RNA: B1 RNA with U25C, C26A, A27U, G28C
DNA 1: CAATCTGAATTCCGGTCTCCC
DNA 2: TGGTGGCTACGACGGGATT
B14: CUGGCAU (DNA:RNA)
RNA: B1 RNA with U25C, C26U, A27G, U30A
DNA 1: CAATCTGAATTCCGGTCTCCC
DNA 2: TGGTGGCTACGACGGGATT
B15: GCAGUCA (DNA:RNA)
RNA: B1 RNA with U25G, C29U, U30C, U31A
DNA 1: CAATCTGAATTCCGGTCTCCC
DNA 2: TGGTGGCTACGACGGGATT
B16: AGUGAGU (DNA:RNA)
RNA: B2 RNA with A28G, C30G, C31U
DNA 1: CAATCTGAATTCCGGTCTCCC
DNA 2: TGGTGGCTACGACGGGATT
B17: GUGGUUG (DNA:RNA)
RNA: B1 RNA with U25G, C26U, A27G, C29U, U31G
DNA 1: CAATCTGAATTCCGGTCTCCC
DNA 2: TGGTGGCTACGACGGGATT
B18: AUGCUCC (DNA:RNA)
RNA: B2 RNA with G26U, U27G, A28C, A29U
DNA 1: CAATCTGAATTCCGGTCTCCC
DNA 2: TGGTGGCTACGACGGGATT
B19: GUGGGUU (DNA:RNA)
RNA: B1 RNA with U25G, C26U, A27G, C29G
DNA 1: CAATCTGAATTCCGGTCTCCC
DNA 2: TGGTGGCTACGACGGGATT
B20: CCCGGCA (DNA:RNA)
RNA: B1 RNA with U25C, A27C, C29G, U30C, U31A
DNA 1: CAATCTGAATTCCGGTCTCCC
DNA 2: TGGTGGCTACGACGGGATT
B21: CGCUCCC (DNA:RNA)
RNA: B2 RNA with A25C, U27C, A28U, A29C
DNA 1: CAATCTGAATTCCGGTCTCCC
DNA 2: TGGTGGCTACGACGGGATT
B22: GCACCAU (DNA:RNA)
RNA: B1 RNA with U25G, G28C, U30A
DNA 1: CAATCTGAATTCCGGTCTCCC
DNA 2: TGGTGGCTACGACGGGATT
B23: GGGUAAA (DNA:RNA)
RNA: B2 RNA with A25G, U27G, A28U, C30A, C31A
DNA 1: CAATCTGAATTCCGGTCTCCC
DNA 2: TGGTGGCTACGACGGGATT
B24: UCAUGUC (DNA:RNA)
RNA: B1 RNA with G28U, C29G, U31C
DNA 1: CAATCTGAATTCCGGTCTCCC
DNA 2: TGGTGGCTACGACGGGATT
B25: CGCAACA (DNA:RNA)
RNA: B2 RNA with A25C, U27C, C31A
DNA 1: CAATCTGAATTCCGGTCTCCC
DNA 2: TGGTGGCTACGACGGGATT
B26: ACCUGGG (DNA:RNA)
RNA: B2 RNA with G26C, U27C, A28U, A29G, C30G, C31G
DNA 1: CAATCTGAATTCCGGTCTCCC
DNA 2: TGGTGGCTACGACGGGATT
B27: CGCCGGG (DNA:RNA)
RNA: B2 RNA with A25C, U27C, A28C, A29G, C30G, C31G
DNA 1: CAATCTGAATTCCGGTCTCCC
DNA 2: TGGTGGCTACGACGGGATT
B28: GCCGGUA (DNA:RNA)
RNA: B1 RNA with U25G, A27C, C29G, U31A
DNA 1: CAATCTGAATTCCGGTCTCCC
DNA 2: TGGTGGCTACGACGGGATT
B29: GGCUAAG (DNA:RNA)
RNA: B2 RNA with A25G, U27C, A28U, C30A, C31G
DNA 1: CAATCTGAATTCCGGTCTCCC
DNA 2: TGGTGGCTACGACGGGATT
B30: GGGCUGG (DNA:RNA)
RNA: B2 RNA with A25G, U27G, A28C, A29U, C30G, C31G
DNA 1: CAATCTGAATTCCGGTCTCCC
DNA 2: TGGTGGCTACGACGGGATT
B31: GGGGAUC (DNA:RNA)
RNA: B2 RNA with A25G, U27G, A28G, C30U
DNA 1: CAATCTGAATTCCGGTCTCCC
DNA 2: TGGTGGCTACGACGGGATT

The target of the test is T1, RBFOX1 RRM (Homo sapiens, UniProt Q9NWB1 109-208).
T1 sequence: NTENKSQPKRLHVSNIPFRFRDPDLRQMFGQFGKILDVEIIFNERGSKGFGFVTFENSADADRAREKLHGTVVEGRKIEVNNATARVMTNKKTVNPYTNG
Nature of the test: EMSA; HiTS-Eq, 1 nM pool, 10 min; buffer printed only for the single-RNA assays: 10 mM Tris pH 7.5, 150 mM NaCl, 3.4 mM EDTA, 0.001% NP-40, 30 C. The settings on record: tags: His6 N-terminal (pET28a); label: 5' 32P. An outline of the steps:
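Purified wild-type or mutant RbFox RRM at increasing concentrations was equilibrated with 1 nM of 5′-radiolabelled RNA carrying 7 randomized nucleotides for 10 min in 50 µL. Unbound RNA was separated by 8% native PAGE and sequenced. Relative association constants came from read-count changes of each RNA species compared with the control reaction, normalised to the cognate motif.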
Background: Mobility shift assays separate free from complexed probe on a gel.
As for B1, the binding signal was 0.00722 KA relative to UGCAUGU.

Consider B2, for which the binding signal was 0.00475 KA relative to UGCAUGU.

Regarding B3, the binding signal was 0.0246 KA relative to UGCAUGU.

As for B4, the binding signal is 0.00472 KA relative to UGCAUGU.

As for B5, the binding signal is 0.0084 KA relative to UGCAUGU.

With B6, the binding signal is 0.000125 KA relative to UGCAUGU.

Consider B7, for which the binding signal is 0.00374 KA relative to UGCAUGU.

As for B8, the binding signal was 0.0183 KA relative to UGCAUGU.

For the molecule B9, the binding signal is 0.00843 KA relative to UGCAUGU.

For B10, the binding signal was 0.0058 KA relative to UGCAUGU.

In the case of B11, the binding signal was 0.0147 KA relative to UGCAUGU.

B12: the binding signal is 0.00091 KA relative to UGCAUGU.

Take B13: the binding signal was 0.00199 KA relative to UGCAUGU.

Turning to B14, the binding signal is 0.0184 KA relative to UGCAUGU.

With B15, the binding signal is 0.00545 KA relative to UGCAUGU.

Consider B16, for which the binding signal was 0.0134 KA relative to UGCAUGU.

In the case of B17, the binding signal was 0.0321 KA relative to UGCAUGU.

Regarding B18, the binding signal was 0.00856 KA relative to UGCAUGU.

Consider B19, for which the binding signal was 0.0265 KA relative to UGCAUGU.

In the case of B20, the binding signal was 0.0217 KA relative to UGCAUGU.

For the molecule B21, the binding signal was 0.00727 KA relative to UGCAUGU.

As for B22, the binding signal is 0.00704 KA relative to UGCAUGU.

As for B23, the binding signal was 0.00803 KA relative to UGCAUGU.

Consider B24, for which the binding signal is 0.00656 KA relative to UGCAUGU.

As to B25, the binding signal is 0.00427 KA relative to UGCAUGU.

In the case of B26, the binding signal is 0.00715 KA relative to UGCAUGU.

As for B27, the binding signal was 0.00987 KA relative to UGCAUGU.

Regarding B28, the binding signal is 0.0132 KA relative to UGCAUGU.

In the case of B29, the binding signal is 0.0134 KA relative to UGCAUGU.

As to B30, the binding signal was 0.0301 KA relative to UGCAUGU.

As to B31, the binding signal is 0.0348 KA relative to UGCAUGU.
